Assay results taken from the supplement of paper PMC8728848.
The list shows a part of the results.

Columns and labels:
Assay in all cases: glycan array binding signal (z-score within array); higher = stronger binding
Details in all cases: glycan notation: IUPAC condensed, linker removed
GlcNAc(b1-3)Gal(b1-4)Glc = target: GlcNAc(b1-3)Gal(b1-4)Glc
Summary of the method: (§1)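 The binding signal is a Z-score computed within each array and averaged over linkers. Arrays of the same protein sequence at different concentrations or buffers were also averaged together. Data originate from 3228 arrays in the Consortium for Functional Glycomics database, kept only where the protein sequence was available.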

[1] = target: GlcNAc(b1-3)Gal(b1-4)GlcNAc
Summary of the method: as §1

[2] = target: GlcNAc(b1-3)Gal(b1-4)GlcNAc(b1-2)Man(a1-3)[GlcNAc(b1-3)Gal(b1-4)GlcNAc(b1-2)Man(a1-6)]Man(b1-4)GlcNAc(b1-4)GlcNAc
Summary of the method: as §1

[3] = target: GlcNAc(b1-3)Gal(b1-4)GlcNAc(b1-2)Man(a1-3)[GlcNAc(b1-3)Gal(b1-4)GlcNAc(b1-2)Man(a1-6)]Man(b1-4)GlcNAc(b1-4)[Fuc(a1-6)]GlcNAc
Summary of the method: as §1

[4] = target: GlcNAc(b1-3)Gal(b1-4)GlcNAc(b1-2)[GlcNAc(b1-3)Gal(b1-4)GlcNAc(b1-6)]Man(a1-6)[GlcNAc(b1-3)Gal(b1-4)GlcNAc(b1-2)Man(a1-3)]Man(b1-4)GlcNAc(b1-4)GlcNAc
Summary of the method: as §1

[5] = target: GlcNAc(b1-3)Gal(b1-4)GlcNAc(b1-3)Gal(b1-4)GlcNAc
Summary of the method: as §1

[6] = target: GlcNAc(b1-3)Gal(b1-4)GlcNAc(b1-3)Gal(b1-4)GlcNAc(b1-2)Man(a1-3)[GlcNAc(b1-3)Gal(b1-4)GlcNAc(b1-3)Gal(b1-4)GlcNAc(b1-2)Man(a1-6)]Man(b1-4)GlcNAc(b1-4)GlcNAc
Summary of the method: as §1

[7] = target: GlcNAc(b1-3)Gal(b1-4)GlcNAc(b1-3)Gal(b1-4)GlcNAc(b1-2)Man(a1-3)[GlcNAc(b1-3)Gal(b1-4)GlcNAc(b1-3)Gal(b1-4)GlcNAc(b1-2)Man(a1-6)]Man(b1-4)GlcNAc(b1-4)[Fuc(a1-6)]GlcNAc
Summary of the method: as §1

[8] = target: GlcNAc(b1-3)Gal(b1-4)GlcNAc(b1-3)Gal(b1-4)GlcNAc(b1-2)[GlcNAc(b1-3)Gal(b1-4)GlcNAc(b1-3)Gal(b1-4)GlcNAc(b1-6)]Man(a1-6)[GlcNAc(b1-3)Gal(b1-4)GlcNAc(b1-3)Gal(b1-4)GlcNAc(b1-2)Man(a1-3)]Man(b1-4)GlcNAc(b1-4)[Fuc(a1-6)]GlcNAc
Summary of the method: as §1

[9] = target: GlcNAc(b1-3)Gal(b1-4)GlcNAc(b1-3)Gal(b1-4)GlcNAc(b1-3)Gal(b1-4)GlcNAc(b1-2)Man(a1-3)[GlcNAc(b1-3)Gal(b1-4)GlcNAc(b1-3)Gal(b1-4)GlcNAc(b1-3)Gal(b1-4)GlcNAc(b1-2)Man(a1-6)]Man(b1-4)GlcNAc(b1-4)GlcNAc
Summary of the method: as §1

[10] = target: GlcNAc(b1-3)Gal(b1-4)GlcNAc(b1-3)Gal(b1-4)GlcNAc(b1-3)Gal(b1-4)GlcNAc(b1-2)Man(a1-3)[GlcNAc(b1-3)Gal(b1-4)GlcNAc(b1-3)Gal(b1-4)GlcNAc(b1-3)Gal(b1-4)GlcNAc(b1-2)Man(a1-6)]Man(b1-4)GlcNAc(b1-4)[Fuc(a1-6)]GlcNAc
Summary of the method: as §1

[11] = target: GlcNAc(b1-3)Gal(b1-4)GlcNAc(b1-3)Gal(b1-4)GlcNAc(b1-3)Gal(b1-4)GlcNAc(b1-2)[GlcNAc(b1-3)Gal(b1-4)GlcNAc(b1-3)Gal(b1-4)GlcNAc(b1-3)Gal(b1-4)GlcNAc(b1-6)]Man(a1-6)[GlcNAc(b1-3)Gal(b1-4)GlcNAc(b1-3)Gal(b1-4)GlcNAc(b1-3)Gal(b1-4)GlcNAc(b1-2)Man(a1-3)]Man(b1-4)GlcNAc(b1-4)[Fuc(a1-6)]GlcNAc
Summary of the method: as §1

[12] = target: GlcNAc(b1-3)Gal(b1-4)GlcNAc(b1-3)Gal(b1-4)GlcNAc(b1-3)Gal(b1-4)GlcNAc(b1-3)Gal(b1-4)GlcNAc(b1-2)Man(a1-3)[GlcNAc(b1-3)Gal(b1-4)GlcNAc(b1-3)Gal(b1-4)GlcNAc(b1-3)Gal(b1-4)GlcNAc(b1-3)Gal(b1-4)GlcNAc(b1-2)Man(a1-6)]Man(b1-4)GlcNAc(b1-4)GlcNAc
Summary of the method: as §1

[13] = target: GlcNAc(b1-3)Gal(b1-4)GlcNAc(b1-3)Gal(b1-4)GlcNAc(b1-3)Gal(b1-4)GlcNAc(b1-3)Gal(b1-4)GlcNAc(b1-2)Man(a1-3)[GlcNAc(b1-3)Gal(b1-4)GlcNAc(b1-3)Gal(b1-4)GlcNAc(b1-3)Gal(b1-4)GlcNAc(b1-3)Gal(b1-4)GlcNAc(b1-2)Man(a1-6)]Man(b1-4)GlcNAc(b1-4)[Fuc(a1-6)]GlcNAc
Summary of the method: as §1

[14] = target: GlcNAc(b1-3)Gal(b1-4)GlcNAc(b1-3)Gal(b1-4)GlcNAc(b1-3)Gal(b1-4)GlcNAc(b1-3)Gal(b1-4)GlcNAc(b1-2)[GlcNAc(b1-3)Gal(b1-4)GlcNAc(b1-3)Gal(b1-4)GlcNAc(b1-3)Gal(b1-4)GlcNAc(b1-3)Gal(b1-4)GlcNAc(b1-6)]Man(a1-6)[GlcNAc(b1-3)Gal(b1-4)GlcNAc(b1-3)Gal(b1-4)GlcNAc(b1-3)Gal(b1-4)GlcNAc(b1-3)Gal(b1-4)GlcNAc(b1-2)Man(a1-3)]Man(b1-4)GlcNAc(b1-4)[Fuc(a1-6)]GlcNAc
Summary of the method: as §1

[15] = target: GlcNAc(b1-3)Gal(b1-4)GlcNAc(b1-3)Gal(b1-4)GlcNAc(b1-3)GalNAc
Summary of the method: as §1

[16] = target: GlcNAc(b1-3)Gal(b1-4)GlcNAc(b1-3)GalNAc
Summary of the method: as §1

[17] = target: GlcNAc(b1-3)Gal(b1-4)GlcNAc(b1-3)[GlcNAc(b1-3)Gal(b1-4)GlcNAc(b1-3)]GalNAc
Summary of the method: as §1

[18] = target: GlcNAc(b1-3)Gal(b1-4)GlcNAc(b1-6)[Gal(b1-3)]GalNAc
Summary of the method: as §1

[19] = target: GlcNAc(b1-3)Gal(b1-4)GlcNAc(b1-6)[GlcNAc(b1-3)Gal(b1-3)]GalNAc
Summary of the method: as §1

[20] = target: GlcNAc(b1-3)Gal(b1-4)GlcNAc(b1-6)[GlcNAc(b1-3)]Gal(b1-4)GlcNAc
Summary of the method: as §1

GlcNAc(b1-3)GalNAc = target: GlcNAc(b1-3)GalNAc
Summary of the method: as §1

GlcNAc(b1-3)Man = target: GlcNAc(b1-3)Man
Summary of the method: as §1

[21] = target: GlcNAc(b1-3)[GlcNAc(b1-4)][GlcNAc(b1-6)]GlcNAc
Summary of the method: as §1

[22] = target: GlcNAc(b1-3)[GlcNAc(b1-6)]Gal(b1-4)GlcNAc
Summary of the method: as §1

[23] = target: GlcNAc(b1-3)[GlcNAc(b1-6)]GalNAc
Summary of the method: as §1

[24] = target: GlcNAc(b1-4)Gal(b1-4)GlcNAc
Summary of the method: as §1

GlcNAc(b1-4)GlcNAc = target: GlcNAc(b1-4)GlcNAc
Summary of the method: as §1

[25] = target: GlcNAc(b1-4)GlcNAc(b1-4)GlcNAc
Summary of the method: as §1

[26] = target: GlcNAc(b1-4)GlcNAc(b1-4)GlcNAc(b1-4)GlcNAc(b1-4)GlcNAc
Summary of the method: as §1

[27] = target: GlcNAc(b1-4)GlcNAc(b1-4)GlcNAc(b1-4)GlcNAc(b1-4)GlcNAc(b1-4)GlcNAc
Summary of the method: as §1

[28] = target: GlcNAc(b1-4)[GlcNAc(b1-6)]GalNAc
Summary of the method: as §1

[29] = target: GlcNAc(b1-6)Gal(b1-4)GlcNAc
Summary of the method: as §1

GlcNAc(b1-6)GalNAc = target: GlcNAc(b1-6)GalNAc
Summary of the method: as §1

[30] = target: GlcNAc6S(b1-3)Gal(b1-4)GlcNAc
Summary of the method: as §1

Kdn(a2-3)Gal(b1-3)GalNAc = target: Kdn(a2-3)Gal(b1-3)GalNAc
Summary of the method: as §1

Kdn(a2-3)Gal(b1-3)GlcNAc = target: Kdn(a2-3)Gal(b1-3)GlcNAc
Summary of the method: as §1

B1: SP16665A-bot-344-23-344 (Bacteroides ovatus) (protein)
chain: SDNEFPDFDYQTVYFANQYGLRTIELGESEFVDNTLDNQHKMVIKAAWGGGYTNRNNVVINFKVDESLCDNLYFKDTDQPLVPMPASYYTLASDRIAIPKGQIMAGVEVQLTDDFFADEKSISENYVIPLLMTNVQGADSILQGKPVVENPVLTNAGDWSILPQNFVLYAVKYVNPWHGEYLRRGIDHATVAGTSKDIIRHEQFVENDEVVNISTKSMKDNLLTLKTKDESGKDISYTVRLSFAEDGSCTVHSGSQNVVVSGSGKFVSKGEKNSLGGKDRNAIYLDYTVNLTDNNIQLATKDTLVLRTRNVYGGKSLEVVRK
- glycan array binding signal (z-score) (GlcNAc(b1-3)Gal(b1-4)Glc): 0.17
- glycan array binding signal (z-score) [1]: -0.233
- glycan array binding signal (z-score) [2]: -0.006
- glycan array binding signal (z-score) [3]: 0.083
- glycan array binding signal (z-score) [4]: 0.155
- glycan array binding signal (z-score) [5]: 0.055
- glycan array binding signal (z-score) [6]: 0.131
- glycan array binding signal (z-score) [7]: 0.848
- glycan array binding signal (z-score) [8]: -0.141
- glycan array binding signal (z-score) [9]: -0.146
- glycan array binding signal (z-score) [10]: -0.318
- glycan array binding signal (z-score) [11]: 0.006
- glycan array binding signal (z-score) [12]: -0.226
- glycan array binding signal (z-score) [13]: -0.027
- glycan array binding signal (z-score) [14]: 0.133
- glycan array binding signal (z-score) [15]: -0.503
- glycan array binding signal (z-score) [16]: 0.5
- glycan array binding signal (z-score) [17]: 0.148
- glycan array binding signal (z-score) [18]: 0.223
- glycan array binding signal (z-score) [19]: -0.227
- glycan array binding signal (z-score) [20]: -0.086
- glycan array binding signal (z-score) (GlcNAc(b1-3)GalNAc): -0.484
- glycan array binding signal (z-score) (GlcNAc(b1-3)Man): -0.188
- glycan array binding signal (z-score) [21]: -0.192
- glycan array binding signal (z-score) [22]: -0.304
- glycan array binding signal (z-score) [23]: -0.544
- glycan array binding signal (z-score) [24]: -0.193
- glycan array binding signal (z-score) (GlcNAc(b1-4)GlcNAc): -0.421
- glycan array binding signal (z-score) [25]: -0.575
- glycan array binding signal (z-score) [26]: -0.452
- glycan array binding signal (z-score) [27]: 0.044
- glycan array binding signal (z-score) [28]: -0.019
- glycan array binding signal (z-score) [29]: 0.154
- glycan array binding signal (z-score) (GlcNAc(b1-6)GalNAc): 0.492
- glycan array binding signal (z-score) [30]: -0.262
- glycan array binding signal (z-score) (Kdn(a2-3)Gal(b1-3)GalNAc): -0.434
- glycan array binding signal (z-score) (Kdn(a2-3)Gal(b1-3)GlcNAc): -0.316
